Measurements: patent US12484583B2 (priority 2019, dated 2025)

Experiments:
Format in all cases: cell-based
[1] = system: Fusarium culmorum; test: Fungal growth on PDA agar, lambda-cyhalothrin (Example 7); details: 7 days
Text: (§1) The Colby equation (Colby, 1967. Weeds 15: 20-22) calculates the expected antifungal activity (E in %) of a combination comprising more than one active ingredients: E=X+Y−[(X·Y)/100] wherein X and Y are the observed antifungal activities (in %) of the individual active ingredients x and y, respectively. If the observed antifungal activity (O in %) of the combination exceeds the expected antifungal activity (E in %) of the combination and the synergy factor O/E is thus >1.0, the combined application of the active ingredients leads to a synergistic antifungal effect.
(§2) Agar medium was prepared by mixing in a 100 ml Duran bottle 3.9 g of potato dextrose agar (PDA) from Carl-Roth (Carl-Roth GmbH+Co. KG, Karlsruhe, Germany) with 100 ml deionized water and autoclaving the Duran bottle at 120° C. for 15 minutes. After autoclaving, the solution was cooled by putting it in a 48° C. oven for about two hours. […] The medium in the Duran bottle was divided over 5 petri dishes (90×15 mm), 20 ml per petri dish by using 25 ml serological pipets (ROTILABO®; Carl-Roth).
(§3) Fungal spore suspensions were prepared by drenching a fully grown petri dish with sterile water. The fungus was scraped off and filtered through a Miracloth (pore size: 22-25 μm) (Merck KGaA, Darmstadt, Germany; catalogue number: 475855). The number of spores were counted with a hemocytometer and fungal suspension was adjusted to 10^6 spores per ml. Afterward, 5 µl of prepared spore suspension was pipetted on the center of the agar plate. The plates were incubated at 25° C. Measurement of the fungal growth was done using calipers at different time points.
(§4) See Example 6. In this example the product KARATE ZEON® of Syngenta containing the active ingredient lambda-cyhalothrin belonging to IRAC Group 3 was used.
The insecticide concentration “N” (see below) that was used was 20 μl insecticide product per 100 ml PDA agar. 0.5 N is 10 μl per 100 ml PDA agar.

[2] = system: Alternaria solani; test: Fungal growth on PDA agar, lambda-cyhalothrin (Example 8); details: 4 days
Text: as §1, §2, §3, §4
The insecticide concentration “N” (see below) that was used was 500 μl of a 25 times in water diluted insecticide solution per 100 ml PDA agar. 2N is 1000 μl of the in water diluted solution per 100 ml PDA agar. 5N was 100 μl of the undiluted Karate zeon product in 100 ml of PDA agar.

[3] = system: Sclerotinia sclerotiorum; test: Fungal growth on PDA agar, lambda-cyhalothrin (Example 9); details: 4 days
Text: as §1, §2, §3, §4
The insecticide concentration “N” (see below) that was used was 500 μl of a 25 times in water diluted insecticide solution per 100 ml PDA agar. 2N is 1000 μl of the in water diluted solution per 100 ml PDA agar. 5N was 100 μl of the undiluted product in 100 ml of PDA agar.

[4] = system: Botrytis cinerea; test: Fungal growth on PDA agar, lambda-cyhalothrin (Example 10); details: 6 days
Text: as §1, §2, §3, §4
The insecticide concentration “N” (see below) that was used was 20 μl of insecticide product per 100 ml PDA agar. 0.5N is 10 μl of the product per 100 ml PDA agar. 0.25N was 5 μl of the undiluted Karate zeon product in 100 ml of PDA agar and 0.125N was 2.5 μl of the insecticide product per 100 ml PDA agar.
1:25 (w/w) and 1:50 (w/w). The efficacy was assessed after 6 days of incubation in a stove at 25° C.

[5] = system: Fusarium culmorum; test: Fungal growth on PDA agar, thiamethoxam (Example 12); details: alone or + natamycin 0.5 pm, 4 days
Text: as §1, §2, §3
See Example 6. In this example the active ingredient thiamethoxam belonging to IRAC Group 4 was mixed with water to make a 1000 ppm solution. The insecticide concentration “N” (see below) that was used was 5 ml of insecticide solution per 100 ml PDA agar. 2N is 10 ml of the thiamethoxam solution per 100 ml PDA agar.
The efficacy was assessed after 4 days of incubation in a stove at 25° C.

[6] = system: Botrytis cinerea; test: Fungal growth on PDA agar, chlorantraniliprole (Example 15)
Text: as §1, §2, §3
See Example 6. In this example the product CORAGEN® of Dupont containing the active ingredient chlorantraniliprole belonging to IRAC Group 28 was used.
The insecticide concentration “N” (see below) that was used was 125 μl of insecticide product per 100 ml PDA agar. Per 100 ml PDA agar the concentration 0.25N contained 31.25 μl coragen; 0.5N contained 62.5 μl coragen, 2N contained 250 μl coragen, 5N contained 625 μl coragen and 10N contained 1250 μl of the coragen product per 100 ml PDA agar.
The efficacy was assessed after 4 and 5 days of incubation in a stove at 25° C.

[7] = system: Fusarium culmorum; test: Fungal growth on PDA agar, chlorfenapyr (Example 20); details: 7 days
Text: as §1, §2, §3
See Example 6. In this example the product SPECTRE® (Adama) containing the active ingredient chlorfenapyr belonging to IRAC Group 13 was used.
The insecticide concentration “N” (see below) that was used was 1 ml of Spectre product added to 100 ml PDA agar. 0.5N: 0.5 ml and 0.25N is 0.25 ml Spectre per 100 ml of PDA agar.
The efficacy was assessed after 7 days of incubation in a stove at 25° C.

[8] = system: Fusarium culmorum; test: Fungal growth on PDA agar, fipronil (Example 6); details: 7 days
Text: as §1, §2, §3
The insecticide concentration “N” (see below) that was used was 0.94 g insecticide product per 100 ml PDA agar. 0.5 N is 0.47 g. […] The efficacy was assessed after 7 days of incubation in a stove at 25° C. Synergistic calculation was done using the Colby equation.

[9] = cyhalothrin 0.5N (10 μl KARATE ZEON per 100 ml PDA), alone or + natamycin 1 ppm (1:25 w/w)
[10] = cyhalothrin 1N (20 μl KARATE ZEON per 100 ml PDA), alone or + natamycin 1 ppm (1:50 w/w)
[11] = Lambda-cyhalothrin 1N (500 μl of 25 times diluted KARATE ZEON per 100 ml PDA), alone or + natamycin 0.5 ppm (1:100 w/w)
[12] = Lambda-cyhalothrin 2N (1000 μl of 25 times diluted KARATE ZEON per 100 ml PDA), alone or + natamycin 0.5 ppm (1:200 w/w)
[13] = Lambda-cyhalothrin 5N (100 μl undiluted Karate zeon per 100 ml PDA), alone or + natamycin 0.5 ppm (1:500 w/w)
[14] = cyhalothrin 1N (500 μl of 25 times diluted KARATE ZEON per 100 ml PDA), alone or + natamycin 0.5 ppm (1:100 w/w)
[15] = cyhalothrin 2N (1000 μl of 25 times diluted KARATE ZEON per 100 ml PDA), alone or + natamycin 0.5 ppm (1:200 w/w)
[16] = cyhalothrin 5N (100 μl undiluted product per 100 ml PDA), alone or + natamycin 0.5 ppm (1:500 w/w)
[17] = cyhalothrin 0.25N (5 μl Karate zeon per 100 ml PDA), alone or + natamycin 1 ppm (1:12.5 w/w)
[18] = thiamethoxam 0.5N (text defines only N and 2N)
[19] = thiamethoxam 1N (N = 5 ml of 1000 ppm solution per 100 ml PDA)
[20] = chlorantraniliprole 0.25N (31.25 μl coragen per 100 ml PDA), alone or + natamycin 1 ppm (1:62.5 w/w), after 4 days
[21] = chlorantraniliprole 0.25N (31.25 μl coragen per 100 ml PDA), alone or + natamycin 1 ppm (1:62.5 w/w), after 5 days
[22] = chlorantraniliprole 0.5N (62.5 μl coragen per 100 ml PDA), alone or + natamycin 1 ppm (1:125 w/w), after 4 days
[23] = chlorantraniliprole 0.5N (62.5 μl coragen per 100 ml PDA), alone or + natamycin 1 ppm (1:125 w/w), after 5 days
[24] = chlorantraniliprole 1N (125 μl CORAGEN per 100 ml PDA), alone or + natamycin 1 ppm (1:250 w/w), after 4 days
[25] = chlorantraniliprole 1N (125 μl CORAGEN per 100 ml PDA), alone or + natamycin 1 ppm (1:250 w/w), after 5 days
[26] = chlorantraniliprole 2N (250 μl coragen per 100 ml PDA), alone or + natamycin 1 ppm (1:500 w/w), after 4 days
[27] = chlorantraniliprole 2N (250 μl coragen per 100 ml PDA), alone or + natamycin 1 ppm (1:500 w/w), after 5 days
[28] = chlorantraniliprole 5N (625 μl coragen per 100 ml PDA), alone or + natamycin 1 ppm (1:1250 w/w), after 4 days
[29] = chlorantraniliprole 5N (625 μl coragen per 100 ml PDA), alone or + natamycin 1 ppm (1:1250 w/w), after 5 days
[30] = chlorantraniliprole 10N (1250 μl coragen per 100 ml PDA), alone or + natamycin 1 ppm (1:2500 w/w), after 4 days
[31] = chlorantraniliprole 10N (1250 μl coragen per 100 ml PDA), alone or + natamycin 1 ppm (1:2500 w/w), after 5 days
[32] = chlorfenapyr 0.25N (0.25 ml Spectre per 100 ml PDA), alone or + natamycin 1 ppm (1:536 w/w)
[33] = chlorfenapyr 0.5N (0.5 ml Spectre per 100 ml PDA), alone or + natamycin 1 ppm (1:1072 w/w)
[34] = chlorfenapyr 1N (1 ml Spectre per 100 ml PDA), alone or + natamycin 1 ppm (1:2145 w/w)
[35] = fipronil 0.5N (0.47 g REGENT per 100 ml PDA), alone or + natamycin 1 ppm (1:3760 w/w)
[36] = fipronil 1N (0.94 g REGENT per 100 ml PDA), alone or + natamycin 1 ppm (1:7520 w/w)

With `CC1(C)[C@H](/C=C(\Cl)C(F)(F)F)[C@@H]1C(=O)O[C@@H](C#N)c1cccc(Oc2ccccc2)c1` [Lambda-Cyhalothrin, [(R)-cyano-(3-phenoxyphenyl)methyl] (1S,3S)-3-[(Z)-2-chloro-3,3,3-trifluoroprop-1-enyl]-2,2-dimethylcyclopropane-1-carboxylate] the “Area (fungal growth)” value [1, 9] was 2546.95 mm2, the “O % observed antifungal activity” value [1, 9] was 14.46% and the “Area (fungal growth)” value [1, 10] was 2702.22 mm2. The “O % observed antifungal activity” value [1, 10] was 9.25%, the “Area (fungal growth)” value [2, 11] was 1109.53 mm2 and the “O % observed antifungal activity” value [2, 11] was 32.05%. For the same compound, the “Area (fungal growth)” value [2, 12] was 871.89 mm2, the “O % observed antifungal activity” value [2, 12] was 46.60% and the “Area (fungal growth)” value [2, 13] was 722.71 mm2. The “O % observed antifungal activity” value [2, 13] was 55.74%, the “Area (fungal growth)” value [3, 14] was 1672.70 mm2 and the “O % observed antifungal activity” value [3, 14] was 14.54%. For the same compound, the “Area (fungal growth)” value [3, 15] was 1620.50 mm2, the “O % observed antifungal activity” value [3, 15] was 17.21% and the “Area (fungal growth)” value [3, 16] was 1528.98 mm2. The “O % observed antifungal activity” value [3, 16] was 21.89%, the “Area (fungal growth)” value [4, 17] was 3544.50 mm2 and the “O % observed antifungal activity” value [4, 17] was −9.03%. The “Area (fungal growth)” value [4, 9] was 3366.17 mm2, the “O % observed antifungal activity” value [4, 9] was −3.54% and the “Area (fungal growth)” value [4, 10] was 3295.33 mm2. The “O % observed antifungal activity” value [4, 10] was −1.36%.
For `CN1COCN(Cc2cnc(Cl)s2)C1=N[N+](=O)[O-]` [thiamethoxam, N-[3-[(2-chloro-1,3-thiazol-5-yl)methyl]-5-methyl-1,3,5-oxadiazinan-4-ylidene]nitramide], the “Area (fungal growth)” value [5, 18] was 875.68 mm2, the “O % observed antifungal activity” value [5, 18] was 6.43% and the “Area (fungal growth)” value [5, 19] was 897.35 mm2. For the same compound, the “O % observed antifungal activity” value [5, 19] was 4.11%.
`CNC(=O)c1cc(Cl)cc(C)c1NC(=O)c1cc(Br)nn1-c1ncccc1Cl` [Chlorantraniliprole, 5-bromo-N-[4-chloro-2-methyl-6-(methylcarbamoyl)phenyl]-2-(3-chloropyridin-2-yl)pyrazole-3-carboxamide] was tested, and the “Area (fungal growth; column head not given)” value [6, 20] was 2762.05, the “O % observed antifungal activity” value [6, 20] was −9.54 and the “Area (fungal growth)” value [6, 21] was 4357.23 mm2. For the same compound, the “O % observed antifungal activity” value [6, 21] was −2.11%, the “Area (fungal growth; column head not given)” value [6, 22] was 2841.26 and the “O % observed antifungal activity” value [6, 22] was −12.68. For the same compound, the “Area (fungal growth)” value [6, 23] was 4549.21 mm2, the “O % observed antifungal activity” value [6, 23] was −6.61% and the “Area (fungal growth; column head not given)” value [6, 24] was 2897.46. For the same compound, the “O % observed antifungal activity” value [6, 24] was −14.91, the “Area (fungal growth)” value [6, 25] was 4370.03 mm2 and the “O % observed antifungal activity” value [6, 25] was −2.41%. The “Area (fungal growth; column head not given)” value [6, 26] was 2599.18, the “O % observed antifungal activity” value [6, 26] was −3.08 and the “Area (fungal growth)” value [6, 27] was 4341.96 mm2. The “O % observed antifungal activity” value [6, 27] was −1.75%, the “Area (fungal growth; column head not given)” value [6, 28] was 1270.26 and the “O % observed antifungal activity” value [6, 28] was 49.62. The “Area (fungal growth)” value [6, 29] was 2747.54 mm2, the “O % observed antifungal activity” value [6, 29] was 35.61% and the “Area (fungal growth; column head not given)” value [6, 30] was 344.05. For the same compound, the “O % observed antifungal activity” value [6, 30] was 86.36, the “Area (fungal growth)” value [6, 31] was 705.44 mm2 and the “O % observed antifungal activity” value [6, 31] was 83.47%.
With `CCOCn1c(-c2ccc(Cl)cc2)c(C#N)c(Br)c1C(F)(F)F` [Chlorfenapyr] the “Area (fungal growth)” value [7, 32] was 1040.80 mm2, the “O % observed antifungal activity” value [7, 32] was 59.51% and the “Area (fungal growth)” value [7, 33] was 644.86 mm2. The “O % observed antifungal activity” value [7, 33] was 74.92%, the “Area (fungal growth)” value [7, 34] was 228.67 mm2 and the “O % observed antifungal activity” value [7, 34] was 91.11%.
For `N#Cc1nn(-c2c(Cl)cc(C(F)(F)F)cc2Cl)c(N)c1[S+]([O-])C(F)(F)F` (racemic) [Fipronil, (±)-5-amino-1-(2,6-dichloro-α,α,α-trifluoro-p-tolyl)-4-trifluoromethyl sulfinylpyrazole-3-carbonitrile], the “Area (fungal growth)” value [8, 35] was 1742.33 mm2, the “O % observed antifungal activity” value [8, 35] was 41.49% and the “Area (fungal growth)” value [8, 36] was 1437.02 mm2. The “O % observed antifungal activity” value [8, 36] was 51.74%.
